This note sets out measurements from article PMC8382200.

Amino acid sequences for entries named in this document (tags omitted). A change or cut given only in a name is not applied to a line headed by its entry. Residues count along the entry.
UniProt P11171: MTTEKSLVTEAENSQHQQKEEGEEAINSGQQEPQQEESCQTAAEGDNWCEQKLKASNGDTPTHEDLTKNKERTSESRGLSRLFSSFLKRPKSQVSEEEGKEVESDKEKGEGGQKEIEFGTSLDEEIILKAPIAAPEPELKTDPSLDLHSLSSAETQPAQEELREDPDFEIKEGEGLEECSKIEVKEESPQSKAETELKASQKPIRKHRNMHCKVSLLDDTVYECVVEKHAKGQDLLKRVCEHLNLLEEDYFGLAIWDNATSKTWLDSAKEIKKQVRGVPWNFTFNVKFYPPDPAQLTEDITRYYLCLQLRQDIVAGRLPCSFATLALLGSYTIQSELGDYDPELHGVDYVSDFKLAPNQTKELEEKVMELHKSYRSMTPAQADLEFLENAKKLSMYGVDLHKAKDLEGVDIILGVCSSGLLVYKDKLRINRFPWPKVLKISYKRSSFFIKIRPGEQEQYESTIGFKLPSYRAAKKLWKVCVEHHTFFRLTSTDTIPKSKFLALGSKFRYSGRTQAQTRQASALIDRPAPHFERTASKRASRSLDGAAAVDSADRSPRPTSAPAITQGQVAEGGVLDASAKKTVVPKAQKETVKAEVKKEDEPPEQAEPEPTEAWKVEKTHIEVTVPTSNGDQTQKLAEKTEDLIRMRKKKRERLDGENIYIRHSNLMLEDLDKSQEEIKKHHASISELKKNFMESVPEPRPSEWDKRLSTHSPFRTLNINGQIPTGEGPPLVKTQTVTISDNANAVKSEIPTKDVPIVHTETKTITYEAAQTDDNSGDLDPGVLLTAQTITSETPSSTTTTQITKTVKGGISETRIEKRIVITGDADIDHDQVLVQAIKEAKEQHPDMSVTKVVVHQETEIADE
UniProt P15311: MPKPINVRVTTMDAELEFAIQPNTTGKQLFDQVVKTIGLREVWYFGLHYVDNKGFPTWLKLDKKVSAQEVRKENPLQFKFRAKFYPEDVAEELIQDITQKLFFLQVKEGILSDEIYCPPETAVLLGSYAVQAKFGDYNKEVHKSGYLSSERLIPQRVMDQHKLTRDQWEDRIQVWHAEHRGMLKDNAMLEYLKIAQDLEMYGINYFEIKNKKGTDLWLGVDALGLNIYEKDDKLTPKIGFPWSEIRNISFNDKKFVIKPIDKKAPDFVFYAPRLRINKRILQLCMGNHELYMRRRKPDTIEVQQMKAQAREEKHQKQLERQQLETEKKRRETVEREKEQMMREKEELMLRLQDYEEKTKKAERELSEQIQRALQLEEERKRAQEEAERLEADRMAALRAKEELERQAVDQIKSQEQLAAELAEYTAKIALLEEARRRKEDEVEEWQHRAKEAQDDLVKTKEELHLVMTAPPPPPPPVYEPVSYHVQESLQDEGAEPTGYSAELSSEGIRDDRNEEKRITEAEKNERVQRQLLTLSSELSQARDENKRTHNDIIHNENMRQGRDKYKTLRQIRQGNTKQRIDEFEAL
UniProt P35240: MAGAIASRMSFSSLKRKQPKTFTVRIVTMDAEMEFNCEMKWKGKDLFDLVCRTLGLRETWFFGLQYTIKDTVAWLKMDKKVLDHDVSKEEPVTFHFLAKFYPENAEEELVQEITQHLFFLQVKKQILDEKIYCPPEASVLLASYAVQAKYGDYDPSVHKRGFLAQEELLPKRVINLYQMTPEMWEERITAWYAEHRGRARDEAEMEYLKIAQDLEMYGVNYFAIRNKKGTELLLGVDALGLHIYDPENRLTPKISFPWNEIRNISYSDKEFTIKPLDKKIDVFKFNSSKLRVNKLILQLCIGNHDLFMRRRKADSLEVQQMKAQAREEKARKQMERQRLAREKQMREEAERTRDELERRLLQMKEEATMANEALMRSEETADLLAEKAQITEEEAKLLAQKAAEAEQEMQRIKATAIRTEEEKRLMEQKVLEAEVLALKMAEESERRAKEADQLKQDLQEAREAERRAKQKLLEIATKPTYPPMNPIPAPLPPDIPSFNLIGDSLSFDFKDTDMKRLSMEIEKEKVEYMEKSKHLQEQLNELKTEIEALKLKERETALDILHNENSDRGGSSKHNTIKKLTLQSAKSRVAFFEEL
recombinant GST-Merlin FERM domain: residues 22-311 of P35240
UniProt O14646: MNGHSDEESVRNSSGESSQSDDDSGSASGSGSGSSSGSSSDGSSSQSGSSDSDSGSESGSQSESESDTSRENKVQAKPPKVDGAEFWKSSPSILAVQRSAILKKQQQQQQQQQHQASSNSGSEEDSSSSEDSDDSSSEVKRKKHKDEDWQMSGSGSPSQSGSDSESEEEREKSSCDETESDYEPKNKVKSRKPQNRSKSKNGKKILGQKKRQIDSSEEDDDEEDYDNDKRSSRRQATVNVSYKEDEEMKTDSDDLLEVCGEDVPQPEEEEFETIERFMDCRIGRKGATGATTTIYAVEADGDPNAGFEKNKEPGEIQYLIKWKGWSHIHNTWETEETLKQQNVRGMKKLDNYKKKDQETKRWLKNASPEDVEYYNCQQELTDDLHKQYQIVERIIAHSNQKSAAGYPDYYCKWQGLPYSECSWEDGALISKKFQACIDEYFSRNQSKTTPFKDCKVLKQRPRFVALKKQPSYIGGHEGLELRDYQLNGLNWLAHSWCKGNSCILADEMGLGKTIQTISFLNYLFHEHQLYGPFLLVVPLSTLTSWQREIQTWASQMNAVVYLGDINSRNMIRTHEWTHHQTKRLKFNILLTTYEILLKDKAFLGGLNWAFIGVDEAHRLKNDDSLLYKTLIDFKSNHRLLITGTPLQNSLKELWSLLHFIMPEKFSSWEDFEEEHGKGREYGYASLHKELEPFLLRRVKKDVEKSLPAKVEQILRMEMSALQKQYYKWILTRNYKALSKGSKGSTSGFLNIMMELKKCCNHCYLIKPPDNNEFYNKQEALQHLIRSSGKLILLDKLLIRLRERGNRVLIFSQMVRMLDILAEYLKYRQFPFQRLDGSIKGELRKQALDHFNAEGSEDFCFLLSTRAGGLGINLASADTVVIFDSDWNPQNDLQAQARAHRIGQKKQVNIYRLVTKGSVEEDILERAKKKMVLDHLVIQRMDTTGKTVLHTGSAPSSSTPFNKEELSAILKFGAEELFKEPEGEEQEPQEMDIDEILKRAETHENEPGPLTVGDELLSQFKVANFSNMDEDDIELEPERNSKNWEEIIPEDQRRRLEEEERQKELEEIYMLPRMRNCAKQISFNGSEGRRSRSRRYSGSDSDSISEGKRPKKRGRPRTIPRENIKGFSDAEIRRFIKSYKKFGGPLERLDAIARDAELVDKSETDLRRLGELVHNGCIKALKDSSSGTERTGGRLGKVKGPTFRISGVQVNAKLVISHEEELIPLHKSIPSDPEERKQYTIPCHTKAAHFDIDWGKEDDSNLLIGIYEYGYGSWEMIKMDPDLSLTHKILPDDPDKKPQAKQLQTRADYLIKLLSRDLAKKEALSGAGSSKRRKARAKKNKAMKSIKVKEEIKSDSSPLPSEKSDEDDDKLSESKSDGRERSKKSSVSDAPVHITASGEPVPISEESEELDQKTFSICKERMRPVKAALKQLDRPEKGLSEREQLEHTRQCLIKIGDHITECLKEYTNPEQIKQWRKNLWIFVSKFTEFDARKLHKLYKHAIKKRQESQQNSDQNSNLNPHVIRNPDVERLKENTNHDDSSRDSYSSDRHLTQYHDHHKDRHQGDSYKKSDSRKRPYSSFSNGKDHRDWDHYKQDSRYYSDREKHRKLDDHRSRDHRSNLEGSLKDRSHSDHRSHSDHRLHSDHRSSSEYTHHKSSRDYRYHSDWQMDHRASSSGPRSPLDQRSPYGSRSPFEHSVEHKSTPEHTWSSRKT
UniProt Q8IZL8: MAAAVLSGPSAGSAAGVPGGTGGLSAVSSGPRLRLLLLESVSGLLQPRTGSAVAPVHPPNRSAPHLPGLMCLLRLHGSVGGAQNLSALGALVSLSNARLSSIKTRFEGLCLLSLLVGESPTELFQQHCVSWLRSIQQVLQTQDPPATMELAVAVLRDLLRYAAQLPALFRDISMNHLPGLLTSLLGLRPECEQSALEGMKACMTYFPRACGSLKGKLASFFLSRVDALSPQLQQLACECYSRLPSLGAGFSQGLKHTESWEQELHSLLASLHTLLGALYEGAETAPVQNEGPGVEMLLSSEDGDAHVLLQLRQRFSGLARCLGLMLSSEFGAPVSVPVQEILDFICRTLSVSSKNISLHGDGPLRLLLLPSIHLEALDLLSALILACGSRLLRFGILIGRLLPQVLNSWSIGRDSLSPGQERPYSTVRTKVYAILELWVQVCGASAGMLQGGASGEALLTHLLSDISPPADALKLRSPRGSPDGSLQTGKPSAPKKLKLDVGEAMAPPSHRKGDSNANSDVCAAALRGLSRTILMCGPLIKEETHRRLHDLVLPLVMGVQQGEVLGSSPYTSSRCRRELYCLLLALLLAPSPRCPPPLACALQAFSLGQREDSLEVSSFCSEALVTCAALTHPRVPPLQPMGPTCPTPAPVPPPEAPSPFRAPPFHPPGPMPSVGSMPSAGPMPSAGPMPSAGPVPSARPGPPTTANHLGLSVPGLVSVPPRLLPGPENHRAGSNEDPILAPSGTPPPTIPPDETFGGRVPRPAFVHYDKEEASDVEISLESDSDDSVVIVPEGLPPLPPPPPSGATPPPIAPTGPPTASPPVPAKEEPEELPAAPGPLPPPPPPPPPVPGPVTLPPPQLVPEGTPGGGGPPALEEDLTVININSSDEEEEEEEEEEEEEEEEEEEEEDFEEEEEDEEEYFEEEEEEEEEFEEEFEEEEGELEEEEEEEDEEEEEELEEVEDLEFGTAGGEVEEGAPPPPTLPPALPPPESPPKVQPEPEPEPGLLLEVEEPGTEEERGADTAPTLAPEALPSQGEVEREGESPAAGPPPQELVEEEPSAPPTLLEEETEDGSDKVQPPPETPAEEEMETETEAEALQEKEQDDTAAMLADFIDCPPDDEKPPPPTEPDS
UniProt Q9Y4B6: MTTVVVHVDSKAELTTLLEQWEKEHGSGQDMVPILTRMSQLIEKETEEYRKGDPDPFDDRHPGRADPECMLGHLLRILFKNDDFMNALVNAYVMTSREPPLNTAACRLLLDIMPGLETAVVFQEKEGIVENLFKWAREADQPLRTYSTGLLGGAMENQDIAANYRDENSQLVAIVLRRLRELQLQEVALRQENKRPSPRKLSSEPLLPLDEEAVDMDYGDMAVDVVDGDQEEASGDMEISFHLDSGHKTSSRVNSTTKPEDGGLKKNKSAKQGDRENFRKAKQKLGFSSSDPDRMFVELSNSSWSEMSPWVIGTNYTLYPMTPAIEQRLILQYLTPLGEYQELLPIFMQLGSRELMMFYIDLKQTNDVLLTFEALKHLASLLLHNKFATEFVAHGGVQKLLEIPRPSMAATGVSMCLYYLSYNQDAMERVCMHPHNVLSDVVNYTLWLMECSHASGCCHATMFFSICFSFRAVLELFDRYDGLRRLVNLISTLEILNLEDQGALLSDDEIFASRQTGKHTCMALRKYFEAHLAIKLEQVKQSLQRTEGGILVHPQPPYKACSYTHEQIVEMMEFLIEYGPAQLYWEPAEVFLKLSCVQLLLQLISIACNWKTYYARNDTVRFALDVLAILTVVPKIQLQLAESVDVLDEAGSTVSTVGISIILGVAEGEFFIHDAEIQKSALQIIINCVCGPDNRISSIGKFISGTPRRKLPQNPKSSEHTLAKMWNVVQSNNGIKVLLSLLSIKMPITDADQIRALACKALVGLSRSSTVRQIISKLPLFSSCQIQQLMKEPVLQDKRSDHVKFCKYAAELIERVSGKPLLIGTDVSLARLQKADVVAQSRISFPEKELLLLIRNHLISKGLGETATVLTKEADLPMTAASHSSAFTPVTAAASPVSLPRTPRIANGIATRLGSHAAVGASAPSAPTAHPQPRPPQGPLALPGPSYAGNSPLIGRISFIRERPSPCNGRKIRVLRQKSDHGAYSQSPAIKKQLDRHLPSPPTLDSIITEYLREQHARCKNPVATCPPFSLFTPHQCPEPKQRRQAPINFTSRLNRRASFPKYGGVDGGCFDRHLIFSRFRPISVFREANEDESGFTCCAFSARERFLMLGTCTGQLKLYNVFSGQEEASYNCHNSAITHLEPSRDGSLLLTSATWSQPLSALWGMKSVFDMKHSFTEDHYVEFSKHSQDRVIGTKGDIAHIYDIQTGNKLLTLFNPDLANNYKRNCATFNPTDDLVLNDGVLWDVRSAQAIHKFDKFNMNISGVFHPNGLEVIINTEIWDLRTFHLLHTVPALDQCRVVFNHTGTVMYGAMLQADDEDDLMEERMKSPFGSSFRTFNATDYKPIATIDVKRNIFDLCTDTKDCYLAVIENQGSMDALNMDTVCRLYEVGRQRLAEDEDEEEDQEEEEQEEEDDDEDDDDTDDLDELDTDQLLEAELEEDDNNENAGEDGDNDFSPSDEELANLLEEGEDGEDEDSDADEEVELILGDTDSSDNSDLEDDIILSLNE

No constants are given. Whether binding was seen depends on the method and setting. In cells and extracts the contact can be indirect. Some results given as binding are weak or reduced against the parent protein; the word gives no strength.

One test addresses Flag-Radixin (UniProt P35241). Briefly: co-IP; Flag-tagged proteins transfected in HEK293T; lysis in PBS-E LB (1% TX100); Flag (M2) agarose IP; endogenous proteins by Western blot; in some panels after siRNA knock-downs or in dense or sparse cells. On the technique in general: Immunoblotting shows a protein as a band on a membrane.
Test [1] deals with Flag-erythrocyte membrane protein band 4.1 (EPB41) (UniProt P11171). The description is as above.
The next test concerns the target Flag-Ezrin (UniProt P15311). The test is described as above.
For another test, the target named is Flag-Merlin isoform 1 (UniProt P35240). The test is described as above.
The target of another test is Flag-Moesin (UniProt P26038). The test is described as above.
Test [2] has as its target recombinant GST-Merlin FERM domain (UniProt P35240). In words: pull-down; 'fishing': recombinant GST-Merlin proteins from Sf9 on Glutathione Sepharose beads (10 μl) added to cell lysates for 2 h, washed, eluted with LDS sample buffer; Western blot; only the target purified.
In test [3] the target is Merlin (human (endogenous in IOMM-Lee)) (UniProt P35240). In words: co-IP; IP of endogenous Merlin or control antibody from IOMM-Lee meningioma cells; endogenous proteins by Western blot.

For the substance CHD1 (from UniProt O14646 1-1710), the binding entry in the test with Flag-Radixin was “no binding”; in test [1], “no binding”; in the test with Flag-Ezrin, “no binding”; with Flag-Merlin isoform 1, “binds”; in the test with Flag-Moesin, “no binding”; in test [2] it was “binds”. Besides, in test [3], the binding entry is “binds”.
Take PELP1 (from UniProt Q8IZL8 1-1130): the binding entry with Flag-Radixin is listed as “no binding”; in test [1], “no binding”; with Flag-Ezrin it was “no binding”; with Flag-Merlin isoform 1, “binds”; with Flag-Moesin, “no binding”.
Take VPRBP (from UniProt Q9Y4B6 1-1507): the binding result in test [2] and in test [3] was “binds” each time.
